91 compounds from PubChem BioAssay AID360 (National Center for Advancing Translational Sciences (NCATS), 2006) can be followed below.

Out of some 48,000 compounds screened, about 550 (1.1%) were called active. Roughly 4% stayed inconclusive and do not appear here. Rule as the data show it: active = potency below about 15 µM; inconclusive = mostly about 16 µM to 33 µM; inactive = weaker than that. The list shows a part of the results.
Potency is read from the fitted curve at half-maximal effect.

The assay concerns the target Lysosomal acid glucosylceramidase (Homo sapiens) (UniProt P04062). Briefly: Glucocerebrosidase.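 Also: the screen sought inhibitors.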 To be noted: purified enzyme, resorufin glucoside fluorescence (screen aimed at inhibitors), 20 min; series mostly up to 77 µM. Put shortly: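 Normal human glucocerebrosidase (0.2 nM final) was assayed with resorufin β-D-glucopyranoside (30 uM final) in 50mM citric acid/KH2PO4, 10mM sodium taurocholate, 0.01% tween-20, pH 5.9. Compounds were titrated; fluorescence (Ex 548, Em 600) read after 20 min at RT.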
Sequence of UniProt P04062 (P04062 whole entry, looked up): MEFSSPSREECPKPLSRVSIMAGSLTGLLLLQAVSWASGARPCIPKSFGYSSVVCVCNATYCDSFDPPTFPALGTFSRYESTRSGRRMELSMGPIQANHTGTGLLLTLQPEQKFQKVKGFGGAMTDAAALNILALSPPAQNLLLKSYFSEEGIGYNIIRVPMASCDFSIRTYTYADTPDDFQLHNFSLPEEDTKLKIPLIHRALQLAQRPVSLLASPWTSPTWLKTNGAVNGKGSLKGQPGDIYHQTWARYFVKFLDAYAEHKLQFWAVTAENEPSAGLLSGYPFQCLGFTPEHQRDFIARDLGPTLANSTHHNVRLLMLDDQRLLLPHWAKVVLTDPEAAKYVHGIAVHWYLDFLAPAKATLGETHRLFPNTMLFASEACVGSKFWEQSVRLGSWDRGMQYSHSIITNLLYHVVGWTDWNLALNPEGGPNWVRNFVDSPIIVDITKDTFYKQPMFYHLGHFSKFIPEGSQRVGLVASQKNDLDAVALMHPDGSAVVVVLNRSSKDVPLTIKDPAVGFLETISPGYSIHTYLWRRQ
Regarding `CCc1ccc2oc(=O)cc(CN3CCCCC3C)c2c1` (stereo unspecified), the Potency was inactive: > 76.9 µM.

On to `CC(=O)c1cc(-c2ccccc2)n(CC(=O)N2CCC(N3CCCCC3)CC2)c1C`, for which the Potency was inactive: > 76.9 µM.

On to `COC(=O)COc1ccc(S(=O)(=O)NCc2cccnc2)cc1C`, for which the Potency is inactive: > 76.9 µM.

On to `CC1(C)OC(=O)C(=CNc2ccccc2)C(=O)O1`, for which the Potency is inactive: > 76.9 µM.

As for `COCCCN1C(=O)c2ccc(C(=O)NCc3ccco3)cc2C1=O`, the Potency is inactive: > 76.9 µM.

`CS(=O)(=O)N(CC(=O)NC1CC1)c1cccc(F)c1`: the Potency was inactive: > 76.9 µM.

In the case of `COc1ccccc1-c1cn(S(=O)(=O)c2ccc(C)cc2)nc1N`, the Potency is inactive: > 76.9 µM.

For the compound `CCS(=O)(=O)N1CCCC(C(=O)NCc2cccnc2)C1` (stereo unspecified), the Potency is inactive: > 76.9 µM.

`CSc1ccn(CCC(=O)O)c(=O)n1`: the Potency was inactive: > 76.9 µM.

In the case of `Cn1c(CSc2ncccn2)nnc1SCC(=O)N1CCCCC1`, the Potency is inactive: > 76.9 µM.

Turning to `Cc1nnc(SCCn2c(N3CCN(C)CC3)nc3c2c(=O)n(C)c(=O)n3C)s1`, the Potency was inactive: > 76.9 µM.

For the compound `Cc1cccc(C)c1NC(=O)C1(N(Cc2ccco2)C(=O)CC2NC(=O)NC2=O)CCCCC1` (stereo unspecified), the Potency was inactive: > 76.9 µM.

For `COc1ccc(C2C(C(=O)Nc3cccc(C)n3)c3ccccc3C(=O)N2C)cc1OC` (stereo unspecified), the Potency was inactive: > 76.9 µM.

Take `COc1ccccc1N1CCN(C(=O)C(NS(=O)(=O)c2cccs2)c2ccccc2)CC1` (stereo unspecified): the Potency was inactive: > 76.9 µM.

Take `CCOC(=O)Nc1cccc(OCC(=O)Nc2ccccc2OC)c1`: the Potency was inactive: > 76.9 µM.

Consider `Cc1nc2ccc(S(=O)(=O)NCC(=O)N3CCCCC3)cc2s1`, for which the Potency is inactive: > 76.9 µM.

As to `Nc1ccc(Cl)c(NC(=O)c2cccs2)c1`, the Potency is inactive: > 76.9 µM.

Turning to `O=C(OCCN1CCOCC1)C(c1ccccc1)c1ccccc1`, the Potency was inactive: > 76.9 µM.

For the compound `COc1ccc(NC(=O)Cn2nnc(-c3ccccc3F)n2)cc1Cl`, the Potency was inactive: > 76.9 µM.

Turning to `CCOC(=O)c1c(N)sc(C(O)(C(F)(F)F)C(F)(F)F)c1-c1ccc(OC)cc1OC`, the Potency was inactive: > 76.9 µM.

Consider `CC1CCN(c2ncccc2C(=O)O)CC1`, for which the Potency is inactive: > 76.9 µM.

Consider `COC(=O)c1cccc(S(=O)(=O)N2CCC(NC(=O)Nc3cccc(F)c3)CC2)c1`, for which the Potency was inactive: > 76.9 µM.

Regarding `O=C(COc1ccc(CO)cc1)Nc1ccc(F)cc1`, the Potency was inactive: > 76.9 µM.

On to `COc1ccc(-n2c(SC3CCOC3=O)nc3ccccc3c2=O)cc1OC` (stereo unspecified), for which the Potency was inactive: > 76.9 µM.

`O=C(c1ccc(Cl)s1)N1CCc2ccccc21`: the Potency is inactive: > 76.9 µM.

As to `CNC(=O)NC(=O)CSc1nc2cc(C(=O)OC)ccc2c(=O)n1-c1ccccc1`, the Potency was inactive: > 76.9 µM.

In the case of `Cc1cc(C)n(-c2nc3c(c(=O)[nH]c(=O)n3C)n2CC(O)COc2ccccc2C)n1` (stereo unspecified), the Potency is inactive: > 76.9 µM.

As for `Cc1ccc(NC(=O)N2CCC(NC(=O)c3ccccc3C)CC2)cc1`, the Potency is inactive: > 76.9 µM.

Take `O=C(c1ccco1)N1CCN(C(=O)c2cc3c(=O)oc4ccccc4c3s2)CC1`: the Potency was inactive: > 76.9 µM.

On to `Cc1nn(Cc2ccccc2)c(C)c1NC(=O)c1cc(-c2ccc3c(c2)OCO3)on1`, for which the Potency was inactive: > 76.9 µM.

For the compound `Cn1nc(CC(=O)Nc2cccc3ncccc23)c2ccccc2c1=O`, the Potency was inactive: > 76.9 µM.

On to `CC(=O)Nc1ccc(S(=O)(=O)N(C)CC(=O)Nc2ccccc2N2CCOCC2)cc1`, for which the Potency is inactive: > 76.9 µM.

As for `COc1c(F)c(F)c(C(=O)Nc2ccccc2N2CCN(C(C)=O)CC2)c(F)c1F`, the Potency was inactive: > 76.9 µM.

With `Cc1cc(C)c(OCC(=O)Nc2cccc(O)c2)cc1C`, the Potency result was “inactive”.

Turning to `Cc1ccc2c(c1)N(CC(=O)N1CCCc3ccccc31)C(=O)CO2`, the Potency is inactive: > 76.9 µM.

With `CC(C)(C)NC(=O)NC(=O)COC(=O)COc1ccc2c(c1)CCC2`, the Potency is inactive: > 76.9 µM.

Take `CCS(=O)(=O)N1CCC(C(=O)NCCCN2CCN(c3ccccc3F)CC2)CC1`: the Potency is inactive: > 76.9 µM.

Consider `CCOc1ccccc1N(CC(=O)NC1CCCC1)C(=O)CCC(=O)Nc1cc(C)on1`, for which the Potency was inactive: > 76.9 µM.

On to `O=C(NC1CCCCC1)N1CCCC(c2nc3ccccc3[nH]2)C1` (stereo unspecified), for which the Potency is inactive: > 76.9 µM.

As for `COCCCNC(=O)CC(NS(=O)(=O)c1ccc(Cl)cc1)c1ccco1` (stereo unspecified), the Potency was inactive: > 76.9 µM.

Consider `CCN=C1SC(CC(=O)Nc2ccc(C)cc2)C(=O)N1CC` (stereo unspecified), for which the Potency was inactive: > 76.9 µM.

Turning to `Cc1cc(C(=O)CSc2nnnn2-c2ccccc2)c(C)n1CC1CCCO1` (stereo unspecified), the Potency is inactive: > 76.9 µM.

For the compound `Cc1cc(=O)n(CC(C)O)c(O)c1C#N` (stereo unspecified), the Potency was inactive: > 76.9 µM.

As for `COC(=O)NCc1ccc(CNC(=O)OC)cc1`, the Potency is inactive: > 76.9 µM.

Take `Cc1onc(-c2ccccc2Cl)c1C(=O)NCc1nc(-c2ccccc2)no1`: the Potency is inactive: > 76.9 µM.

With `CN1C(=O)CSc2ccc(NC(=O)Nc3ccccn3)cc21`, the Potency was inactive: > 76.9 µM.

Consider `Cc1cc(C(F)F)n2nc(C(=O)Nc3cccc(C(F)(F)F)c3)nc2n1`, for which the Potency was inactive: > 76.9 µM.

`COc1cccc(C(=O)NC2CCN(CC(=O)NCc3ccccc3OC)CC2)c1`: the Potency is inactive: > 76.9 µM.

`Cc1cc(NC(=O)c2cnn3cccnc23)no1`: the Potency is inactive: > 76.9 µM.

For the compound `O=C(NCc1cccnc1)c1ccc(Cl)c(Cl)c1`, the Potency was inactive: > 76.9 µM.

For the compound `CCS(=O)(=O)Nc1ccc(C(=O)CC2(O)C(=O)Nc3ccc(Br)cc32)cc1` (stereo unspecified), the Potency was inactive: > 76.9 µM.

Turning to `CCCOc1ccc(C2C(C(=O)c3ccco3)=C(O)C(=O)N2CCCn2ccnc2)cc1` (stereo unspecified), the Potency was inactive: > 76.9 µM.

For the compound `CC(=O)Nc1c(O)nc(SCC(=O)Nc2ccc(C(C)=O)cc2)[nH]c1=O`, the Potency is inactive: > 76.9 µM.

On to `COc1ccc(C(=O)Nc2ccc(Cl)c(Cl)c2)c(OC)n1`, for which the Potency is inactive: > 76.9 µM.

Turning to `CCN(CC)C(=O)Oc1ccc2c(=O)c(-c3ccccc3)coc2c1`, the Potency was inactive: > 76.9 µM.

Consider `Cn1c(=O)[nH]c(=O)c2c1nc(CN1CCN(c3cccc(Cl)c3)CC1)n2CCc1ccccc1`, for which the Potency was inactive: > 76.9 µM.

As for `CCOC(=O)CSc1nc(-c2ccc(OC)cc2)ns1`, the Potency was inactive: > 76.9 µM.

For the compound `Cc1ccc(CN2C(=O)CCC2C(=O)NCCCN2CCC(C)CC2)cc1` (stereo unspecified), the Potency was inactive: > 76.9 µM.

`CCOc1ccc(C(=O)N2CCN(C(=O)c3ccco3)CC2)cc1OCC`: the Potency was inactive: > 76.9 µM.

In the case of `Cn1c(=O)c2c(nc(Oc3ccc4c(c3)OCO4)n2Cc2ccc(Cl)cc2)n(C)c1=O`, the Potency was inactive: > 76.9 µM.

Turning to `COc1ccc(OC(C)C(=O)N2CCOCC2)cc1` (stereo unspecified), the Potency is inactive: > 76.9 µM.

Consider `CS(=O)(=O)N(CCc1ccccc1)CC(=O)NCc1ccco1`, for which the Potency was inactive: > 76.9 µM.

For `COC(=O)[C@H](C)NC(=O)Nc1ccccc1C(F)(F)F`, the Potency is inactive: > 76.9 µM.

Consider `N#CCC(=O)N1CCCCCC1`, for which the Potency was inactive: > 76.9 µM.

For the compound `COc1ccccc1NC(=O)Oc1ccc(NC(=O)c2ccco2)cc1`, the Potency is inactive: > 76.9 µM.

Take `CC12CCC(C(=O)NCc3ccc4c(c3)OCO4)(CC1=O)C2(C)C` (stereo unspecified): the Potency is inactive: > 76.9 µM.

For `CCOc1ccc2nc(N3CCCCCC3)sc2c1`, the Potency was inactive: > 76.9 µM.

On to `CN1C(=O)N(C)C2(c3ccccc3)N(C)C(=O)NC12c1ccccc1` (stereo unspecified), for which the Potency is inactive: > 76.9 µM.

With `CC(=O)c1ccc(N2CCN(C(=O)c3ccco3)C(C)C2)c(F)c1` (stereo unspecified), the Potency was inactive: > 76.9 µM.

Consider `CCn1c(SCC(=O)c2cccs2)nnc1-c1cccs1`, for which the Potency was inactive: > 76.9 µM.

Turning to `CC(=O)c1n[nH]nc1NC(=O)c1ccccc1`, the Potency is inactive: > 76.9 µM.

Turning to `Cc1n[nH]c(C)c1S(=O)(=O)NCCc1ccc(Cl)cc1`, the Potency is inactive: > 76.9 µM.

In the case of `COc1ccc(Br)cc1C1NC(=O)c2c(sc3c2CCN(C)C3)N1` (stereo unspecified), the Potency is inactive: > 76.9 µM.

For the compound `Cc1cc(-c2nnc3n2N=C(C(C)(C)C)CS3)n[nH]1`, the Potency was inactive: > 76.9 µM.

As for `CCOC(=O)N1CCN(S(=O)(=O)c2ccc3c(c2)SCC(=O)N3)CC1`, the Potency was inactive: > 76.9 µM.

Turning to `COc1ccc(NS(=O)(=O)Cc2ccccc2Cl)cn1`, the Potency was inactive: > 76.9 µM.

For the compound `Cc1nonc1NC(=O)OC1CCCCC1`, the Potency was inactive: > 76.9 µM.

With `N#Cc1c(N)oc(-c2cccs2)c1-c1cccs1`, the Potency is inactive: > 76.9 µM.

As for `Cc1ccccc1CN1C(=O)C2(OCCCO2)c2ccccc21`, the Potency was inactive: > 76.9 µM.

Consider `Cn1c(C(=O)NCCC2=CCCCC2)cc2c(=O)n3ccccc3nc21`, for which the Potency was inactive: > 76.9 µM.

Take `Clc1ccc(OCCn2ccnc2)c(Cl)c1`: the Potency was inactive: > 76.9 µM.

Take `COc1ccc(CNC(=O)c2cc3c(=O)n4ccccc4nc3n(Cc3ccco3)c2=N)cc1`: the Potency was inactive: > 76.9 µM.

`COC(=O)C1=C(C)NC(C)=C(C(=O)OC)C1c1ccccn1`: the Potency is inactive: > 76.9 µM.

Regarding `Cc1ccc2c(c1)N(Cc1ccncc1)C(=O)C(C)O2` (stereo unspecified), the Potency is inactive: > 76.9 µM.

Turning to `COCCn1c(N)c(NCc2ccccc2)c(=O)n(CC(=O)Nc2cc(C)ccc2C)c1=O`, the Potency was inactive: > 76.9 µM.

Turning to `CN1C(=S)SC(N(O)C(=O)NC2CCCCC2)C1(C)C` (stereo unspecified), the Potency is inactive: > 76.9 µM.

`CCOc1cc(N2CCOCC2)c(OCC)cc1NC(=O)COC(=O)CCc1c[nH]c2ccccc12`: the Potency was inactive: > 76.9 µM.

For the compound `CCN(Cc1ccccc1)C(=O)c1ccccc1C`, the Potency was inactive: > 76.9 µM.

`O=C(Nc1ccc(F)cc1F)c1ccco1`: the Potency was inactive: > 76.9 µM.

As for `CC(C)(C)NC(=O)C1CC(=O)OC12CCCCC2` (stereo unspecified), the Potency was inactive: > 76.9 µM.

For `COCCNC(=O)CSc1nc2cc(OC)c(OC)cc2c(=O)n1CCC1=CCCCC1`, the Potency is inactive: > 76.9 µM.
